Test results from PubChem BioAssay AID504444 (National Center for Advancing Translational Sciences (NCATS), 2011).
Screen size: about 360,000 compounds; about 7,500 (2.1%) were called active. About 20% were inconclusive and are not listed. Calls follow the shape of the dose curve; as a rule, active = well fitted inhibition curve with a large enough effect; inconclusive = small, poorly fitted or top-dose-only effect, or effect the other way; inactive = flat fitted curve, though single readings scatter. This is a selection; strong and weak results do not stand in their true shares. Bridge positions count the residues as written; N and C are the ends. Square brackets hold non-standard residues; d marks the D form. Peptide text beside a SMILES is read from it. * marks the point of attachment. X1 = CCC(C)C(N)C1=NC(C(=O)*)CS1; dOrn = NCCC[C@@H](N)C(=O)O

Experiment: Nrf2 qHTS screen for inhibitors; also: nearly all actives have a fitted effect of over 60% in size
Details: A549 ARE-Fluc reporter, luciferase luminescence, 18-24 h; series mostly up to 46 µM; activity change, negative = inhibition: at the top concentration
Summary of the method: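 A549 ARE_Fluc cells, 5000/well, 5% FBS OPTI-MEM; compounds in dose-response, 18-24 h at 37 °C/5% CO2; CellTiter-Fluor viability read (Ex 405/Em 525), then BugLite luciferase luminescence = Nrf2 activity.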
% is scaled to controls: 0 for no effect and ±100 for the full control effect; potency is read from the fitted curve at half-maximal effect.

Activity change, negative = inhibition, inactive:
Cc1cc(NC(=O)CCCN2C(=O)/C(=C\c3cccs3)SC2=S)no1 21%
CCCCN(CCCC)CCNC(=O)c1cn(C)c2ccc(S(=O)(=O)N3CCCC3)cc2c1=O -17.9%
COc1cc(C(CCN2CCN(c3ccccc3)CC2)c2c(OC)cc(OC)c3c(C)cc(=O)oc23)cc(OC)c1OC (centres undefined) -13.3%
COc1ccc(C2=NS(=O)(=O)N(C)C(C(=O)N(C)Cc3ccccc3)=C2)cc1OC 18.5%
C=C1CCN(C(C(=O)OC)C(C)C)S(=O)(=O)c2ccc(F)cc21 (centres undefined) -0.502%
CC(C)(C)OC(=O)N1CCC(c2c(C(=O)N3CCN(C(=O)c4ccco4)CC3)cnn2-c2cccc(Cl)c2)CC1 9.42%
COC(=O)[C@@]12CCCCN1[C@H](c1ccc(-c3cccc(Cl)c3)cc1)[C@@H]1C(=O)N(C)C(=O)[C@@H]12 -19.3%
O=S(=O)(c1ccc2ccccc2c1)N1CCN(S(=O)(=O)c2c(F)cccc2F)CC1 -4.78%
O=C(CN1CCN(Cc2ccccc2)CC1)N/N=C/C=C/c1ccco1 9.74%
COc1ccc(OC)c(-c2nnc3n2N=C(c2ccc(OC)c(OC)c2)CS3)c1 -14.8%
COc1cccc(CNc2nc(Cl)nc3nc[nH]c23)c1 -19.8%
O=C(CCCn1ncn2c(cc3occc32)c1=O)NCc1ccccc1F -7.28%
COc1ccc(OC)c(CNC(=O)CCC(=O)N2Cc3ccccc3Oc3ncccc32)c1 -7.33%
CCCOc1ccc(CNC(=O)Cn2c(=O)oc3ccccc32)cc1 6.72%
C[C@H](NC(=O)[C@@H]1Cc2ccccc2CN1)C(=O)NC1CCCC1 2.83%
CC(C)c1ccc(NC(=O)CNC(=O)Cn2ccc3ccccc3c2=O)cc1 -12.3% [at 9.27 µM]
Cc1onc(-c2c(Cl)cccc2Cl)c1C(=O)NC1C(=O)N2C1SC(C)(C)C2C(=O)O (centres undefined) -1.12%
CC1CCN(S(=O)(=O)c2ccc3nc(N4CCN(c5ccccc5)CC4)ccc3c2)CC1 7.12%
Cc1ccc(S(=O)(=O)N2CCN(CC(=O)NC3CCCc4ccccc43)CC2)cc1C (centres undefined) -16.6%
COc1cc2c(cc1OC)[C@@H]1Cc3ccc(OC)c(OC)c3CN1CC2 0.684%
Cc1c(C(=O)Nc2ccccc2F)sc2nc3n(c(=O)c12)CCC3 -10.5%
Cc1ccc(C)c(NC(=O)CCn2cnnn2)c1 8.2%
C/C=C(\C)C(=O)OC1CC(C)(C)C[C@H]2C3=CC[C@@H]4[C@@]5(C)CCC(O[C@@H]6O[C@@H](C(=O)O)[C@@H](O)C(O[C@@H]7OC[C@H](O)[C@@H](O)[C@@H]7O[C@@H]7OC(CO)C(O)[C@@H](O)[C@@H]7O)C6O[C@@H]6OC(CO)C(O)C(O)C6O)[C@@](C)(CO)[C@@H]5CC[C@]4(C)[C@]3(C)CC(O)[C@@]12CO (some centres undefined) -5.38%
Cc1cc2c(cc1S(=O)(=O)CCC(=O)NCc1ccccc1)OCC(=O)N2 -29.3%
CC(=O)c1cccc(S(=O)(=O)N2CCN(c3ccccc3F)CC2)c1 0.153%
C=CCn1c(=O)/c(=C/c2ccc(Cl)cc2)s/c1=C(\C#N)c1nnc2n1CCCCC2 0.501%
O=C(C[C@H]1C/C=C\CC[C@@H](Cc2ccc(F)cc2)C(=O)OC[C@H]2CCCN2C1=O)N[C@H](CO)Cc1ccccc1 -7.43%
CCCN1CCC(=O)N(CCSc2ccc(C)cc2)CC1 17%
COc1ccc(N2CCN(C(=O)CCCCn3c(=O)[nH]c4ccsc4c3=O)CC2)cc1 -6.65% [at 9.27 µM]
CC(C)(C)[C@@H]1COC(=O)[C@H](Cc2ccc(F)cc2)CC/C=C\C[C@@H](CC(=O)N(CCO)Cc2ccccc2)C(=O)N1 -15.5%
Cc1ccc(F)c([C@H]2[C@H]3C=CC[C@@H](C)[C@@H]3C(=O)N2Cc2ccccc2)c1 -5.38%
CCC(C)C(N)C1=NC(C(=O)N[C@@H](CC(C)C)C(=O)N[C@H](CCC(=O)O)C(=O)N[C@H](C(=O)N[C@H]2CCCCNC(=O)[C@H](CC(N)=O)NC(=O)[C@@H](CC(=O)O)NC(=O)[C@H](Cc3cnc[nH]3)NC(=O)[C@@H](Cc3ccccc3)NC(=O)[C@H]([C@@H](C)CC)NC(=O)[C@@H](CCCN)NC2=O)[C@@H](C)CC)CS1 (some centres undefined) (X1-L[dE]IK[dOrn]I[dF]H[dD]N; lactam 4-C) 2.91%
COc1ccc(-c2nn(-c3ccccc3)cc2/C=C(/C#N)C(N)=O)cc1[N+](=O)[O-] -0.115%
CN(c1ccccc1)c1ccc(/C=C(\CCC(=O)O)c2nc3ccccc3s2)cc1[N+](=O)[O-] -12.9%
CCC1CN(C(=O)N2CCC(C(=O)NCc3ccco3)CC2)c2cc(C)ccc2O1 (centres undefined) -18%
COc1ccccc1CNC(=O)CCS(=O)(=O)c1ccc2c(c1)CC(C)N2C(=O)C1CC1 (centres undefined) -20.2%
O=C(C[C@H]1C/C=C\CC[C@H](Cc2ccc(F)cc2)C(=O)OC[C@H]2CCCN2C1=O)N[C@@H](CO)Cc1ccccc1 0%
COc1ccc(-c2noc(N3CCC(C(=O)Nc4ccc(OC)c(OC)c4)CC3)n2)cc1 -7.18%
CCC1CN(C(=O)NCc2ccccc2)c2cc(C)ccc2O1 (centres undefined) -0.967%
CC(C)(C)[C@@H]1COC(=O)[C@H](Cc2ccc(F)cc2)CC/C=C\C[C@H](CC(=O)N(CCO)Cc2ccccc2)C(=O)N1 -24.2%
CC1CC=CC2C1C(=O)N(Cc1ccccc1)C2c1ccc(F)c(-c2ccc(N(C)C)cc2)c1 (centres undefined) -14.8%
CC(=O)C[C@H](O)CC(=O)[C@H]1OC(=O)[C@H](C)C/C=C\Cc2ccccc21 0.141%
Cc1cccc(NC(=O)C(=O)NCCCN2CCOCC2)c1 -12.7%
O=C(Nc1cnn(Cc2ccc(F)cc2)c1)c1cnn2c(C(F)F)cc(-c3ccccc3)nc12 -0.391%
CCO[C@H]1OC(C(=O)N2CCN(Cc3ccc4c(c3)OCO4)CC2)=C[C@@H](c2ccc(C(F)(F)F)cc2)[C@@H]1CCCO -12.5%
CCOc1ccc(OCC)c(NC(=O)C2CCN(S(=O)(=O)c3ccc4c(c3)CC(C)N4C(C)=O)CC2)c1 (centres undefined) -17.9%
CC(C)(C)n1ncc2c(=O)n(Cc3c(F)cccc3Cl)cnc21 -28.2%
N=c1c2c(ncn1CCN1CCOCC1)Oc1ccc3ccccc3c1C2c1ccccc1 (centres undefined) -1.25%
Cc1cc(C(=O)N[C@@H](c2ccccc2)[C@]2(C)C[C@H]2[C@@H](C)C(=O)Nc2ccc3ccccc3c2)no1 9.62%
C#Cc1ccc([C@@H]2C=C(C(=O)NCc3ccccc3)O[C@H](OCC)[C@H]2CCCO)cc1 -13.1%
CCOc1ccc(NC(=O)Cn2c(=O)n(CC3CCCO3)c(=O)c3ccccc32)cc1 (centres undefined) -6.42%
Cc1cc2[nH]c(=O)c(=O)[nH]c2cc1S(=O)(=O)N1CCN(c2cccc(C)c2C)CC1 8.76%
C=CC[C@@H](CC(=O)N[C@@H](CO)Cc1ccccc1)C(=O)NC[C@@H](OC(=O)[C@@H](CC=C)Cc1ccc(F)cc1)c1ccccc1 1.26%
COc1ccc2c(c1)C(=O)[C@H](O)[C@@H](c1ccc(OC)c(Br)c1)O2 6.34%
CCCCCCNC(=O)N1C/C=C\C(c2ccc(OC)cc2)N(Cc2ccc(F)cc2)C(=O)C1 (centres undefined) -15.9%
Cc1ccc(Cl)cc1NC(=O)c1cc(S(=O)(=O)N2CCOCC2)cn1C -16%
CCc1ccc(NC(=O)C2CCN(S(=O)(=O)c3c(C)noc3C)CC2)cc1 11.7%

Potency, inactive:
COc1ccc(C2Nc3ccccc3C(=O)N2Cc2ccco2)cc1CN1C(=O)c2ccccc2C1=O (centres undefined)

Potency, active:
Cc1cc(C(=O)N2CCN(c3cccc(Cl)c3)CC2)c2c(C)nn(-c3ccccc3Cl)c2n1 18.4 µM
Cc1nn(-c2ccccc2)nc1C(=O)c1c(C)[nH]n(-c2ccccc2)c1=O 20.6 µM
CC[C@]12c3[nH]c4ccc(Cl)cc4c3CCN1C(=O)[C@@H](CC(=O)NCC13CC4CC(CC(C4)C1)C3)C[C@@H]2C(=O)N1CCN(C(=O)C2CC2)CC1 23.1 µM
CCOc1ccccc1C(=O)NCC(=O)N1CCN(Cc2ccc3c(c2)OCO3)CC1 4.61 µM
CCC(O)C1CCN(C(=O)c2cc(COc3ccc4ncccc4c3)on2)CC1 (centres undefined) 1.84 µM
CCOC(=O)Nc1ccc2c(CNC(C)c3ccccc3OC)cc(=O)oc2c1 (centres undefined) 13 µM
CC(=O)N1CCc2cc(S(=O)(=O)CCC(=O)N3CCN(c4cc(C)ccc4C)CC3)ccc21 14.6 µM
Cc1ccc(Cn2ncc3c(N4CCN(c5ccccc5C)CC4)ncnc32)cc1 20.6 µM
CCN(Cc1ccccc1)C(=O)Cn1c(=O)cc(C)c2c(C)nn(-c3cccc(F)c3)c21 20.6 µM
CCOC(=O)C(=Cc1ccc(Br)cc1)C(=O)OCC 18.4 µM
COC(=O)c1cc(C)nc2c1C(=O)C(=O)C=C2N1CCOCC1 16.4 µM
CCOc1ccc(NS(=O)(=O)c2ccc(C(=O)N3CCN(c4ncccn4)CC3)cc2)cc1 16.4 µM
CC1(C)CC(N2CCN(C(c3ccccc3)c3ccccc3)CC2)=CC(=[N+]2CCCCC2)C1 7.31 µM
Cc1ccc(-c2nc(CSCC(=O)N3CCN(c4ccccn4)CC3)c(C)o2)cc1 16.4 µM
CN(C)CCCNC(=O)/C=C/c1ccc(OCc2c(F)cccc2Cl)cc1 20.6 µM
Cc1ccc2occ(CC(=O)Nc3ccc(S(=O)(=O)N4CCCC(C)C4)cc3)c2c1 (centres undefined) 20.6 µM
COc1ccc(-c2nc(CSCC(=O)N3CCN(c4ccccc4F)CC3)c(C)o2)cc1 5.8 µM
O=C(Nc1ccc(OC(F)(F)F)cc1)c1[nH]ncc1[N+](=O)[O-] 7.31 µM
CC1CCCCC1NS(=O)(=O)c1ccc(S(=O)(=O)NCc2ccncc2)cc1 (centres undefined) 2.31 µM
CCCCOC(=O)c1[nH]c2c(c1C)C(=O)CC(c1cc(OC)c(OC)c(OC)c1)C2 (centres undefined) 13 µM
Cc1c(C)n(Cc2ccccc2)c2ncnc(NN)c12 25.9 µM
